# Test results from article PMC6919601, “Identification of Plasmodium dipeptidyl aminopeptidase allosteric inhibitors by high throughput screening” (PLoS ONE, 2019).
# Screen size: about 110,000 compounds; about 230 (0.21%) showed an effect of 50% or more. The list shows a part of the results.
# Molecular target: DPAP1 (Plasmodium falciparum, UniProt Q8IIJ9)
# Assay: primary screen, percent inhibition; read by cleavage of a fluorogenic dipeptide substrate; higher = more effect of the substance
# Design: species or system P. falciparum D10 trophozoite lysates; single well
# 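Further: 30 min substrate incubation versus DMSO and 10 µM JCP410 controls.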
# Chain of DPAP1 (Q8IIJ9 whole entry, looked up): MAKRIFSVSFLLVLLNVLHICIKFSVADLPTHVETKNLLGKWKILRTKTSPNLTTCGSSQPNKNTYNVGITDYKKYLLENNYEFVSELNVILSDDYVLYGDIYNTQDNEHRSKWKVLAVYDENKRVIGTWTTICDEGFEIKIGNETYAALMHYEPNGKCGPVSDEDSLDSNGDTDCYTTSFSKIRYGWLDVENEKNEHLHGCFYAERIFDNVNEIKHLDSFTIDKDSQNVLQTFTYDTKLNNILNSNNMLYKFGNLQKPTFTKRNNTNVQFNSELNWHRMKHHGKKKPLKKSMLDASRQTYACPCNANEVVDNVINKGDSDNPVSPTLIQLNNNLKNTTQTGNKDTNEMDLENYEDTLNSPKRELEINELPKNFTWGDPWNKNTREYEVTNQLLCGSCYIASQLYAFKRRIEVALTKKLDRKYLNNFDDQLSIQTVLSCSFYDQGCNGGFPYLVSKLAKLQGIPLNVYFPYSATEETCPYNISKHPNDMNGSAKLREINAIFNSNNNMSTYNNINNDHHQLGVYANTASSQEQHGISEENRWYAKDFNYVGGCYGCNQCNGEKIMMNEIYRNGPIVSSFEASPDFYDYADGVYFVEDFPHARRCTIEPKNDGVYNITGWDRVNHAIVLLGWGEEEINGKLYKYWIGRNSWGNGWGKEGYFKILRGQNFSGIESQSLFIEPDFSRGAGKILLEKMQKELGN
row,SMILES,% Inhibition @ 10 uM [%]
1,C=CCN1C(=O)S/C(=C/c2cccc(C)c2)C1=O,1.92
2,Cc1cccc(OCCn2c(C(C)O)nc3ccccc32)c1 (stereo not shown),2.73
3,Cn1c2c(c(=O)[nH]c1=O)C(c1ccsc1)C1=C(O)c3ccccc3C1=N2 (stereo not shown),4.08
4,Cc1cccc(/C(O)=C/C=N/c2ccc(Cl)cn2)c1,-9.55
5,Clc1cnc2[nH]c(-c3cccnc3)nc2c1,-6.08
6,CC(C)(Oc1ccc(Cl)cc1)C(=O)N1CCc2ccccc2C1,0.565
7,OCCCc1nc2ccccc2n1Cc1ccccc1F,-0.28
8,CCC(C)n1c(=O)c2sccc2n2c(CCCC(=O)NCc3ccc(C)cc3)nnc12 (stereo not shown),-5.95
9,COc1cc(C(=O)Nc2ccc(S(=O)(=O)N3CCc4ccccc43)cc2)cc(OC)c1OC,-2.19
10,Cc1ccc2nc(NC(=O)CCn3cccc3)sc2c1,-4.24
11,COc1ccc(CC(=O)N(Cc2ccccc2)Cc2ccccc2)cc1,-1.38
12,CCOC(=O)N1CCN(C(=O)c2cc(S(=O)(=O)N3CCCC3)cn2C)CC1,-3.42
13,C=CCN1C(=O)C(O)(CC(=O)c2ccc(OC)cc2OC)c2ccccc21 (stereo not shown),-4.61
14,CC1CCN(CC(O)Cn2ccc3ccccc32)CC1 (stereo not shown),-1.72
15,Cc1cc(Br)ccc1OCC(=O)Nc1ccc(S(=O)(=O)N2CCCCC2)cc1,-2.67
16,CCCCN(C)Cc1ccc2c(c1)c1ccccc1n2CC,-0.603
17,O=C(CSCc1cccc2ccccc12)Nc1ccccc1,-0.996
18,O=C(NCc1ccccc1Cl)C(=O)NCC(c1cccnc1)N1CCOCC1 (stereo not shown),-3.51
19,CCC(C)NC(=O)C1=CC(c2ccc(C)cc2)=NS(=O)(=O)N1C (stereo not shown),5.48
20,CC(C)c1ccc(C2C(C#N)=C(N)SC(N)=C2C#N)cc1,46.7
21,O=C(Cn1nc(C(F)(F)F)cc1C1CC1)Nc1ccc(S(=O)(=O)N2CCCC2)cc1,1.38
22,O=C(c1nc2ncccn2n1)N1CCN(C(c2ccccc2)c2ccccc2)CC1,-5.41
23,Cc1ccc(C(=O)N2CCC(Cc3ccccc3)CC2)cc1[N+](=O)[O-],1.38
24,CCn1c(C)nc2cc(Cl)ccc21,-3.55
25,CCCOC(=O)c1cc(-c2ccc(/C=C3\C(=O)N(CCO)C(=O)C(C#N)=C3C)o2)ccc1Cl,-8.88
26,Cc1ccc(S(=O)(=O)N(C)CC(=O)NCc2ccco2)cc1,0.235
27,COc1ccc(S(=O)(=O)N(CC(=O)Nc2cccc(F)c2)c2ccc(F)cc2)cc1OC,-3.43
28,CCOc1ccc2oc(C)c(C(=O)O)c2c1,-0.357
